# Results taken from the supplement of paper PMC8728848.
# Some of the results follow.
# B1: GS7807P-bth-537-23-537 (Bacteroides thetaiotaomicron) (protein)
# chain: NYENINSNPYEAPDLSADGYALGSAMNNLAGCVVSPDVNTAQFTDCLLGGPLGGYFADSNAGFTETISNFNPKDDWSRVFLKSDKIIPTLYSNLTQVKLVSQNTNDPVPYAIAQVIKVAAMHRVTDAFGPIPYSQIGANGEIATPYDSQEVTYNTFFDELNAAIATLNENSNEQLVPTADYIYKGDVKKWIRFANSLKLRLAIRIAYANPVKAQQMAEEAVNPANGGVIESNADNATWNYFETSQNPIYVATRYNQVQTSDHGGVPCLTGGDTHAAADIICYMNGYKDNRREKFFTKSEWAGQDYVGMRRGIVIPELKTTGHKYSGVNIAPTSPLYWMNAAEVAFLRAEGQAVFNFSMGGTAESFYNQGIRLSFEQWGADGVEDYLKDDVNKPTAYTDPAGTNTYQNALSNITIKWNDSADKEEKQERIIVQKWIANWQLGNEAWADFRRTGYPKLIPVKENKSGGVVDSEKGARRMPYPLDEFVSNKANVEYAIANYLHGADNMATDVWWASKK
# Experiments:
# Assay in all cases: glycan array binding signal (z-score within array); higher = stronger binding
# Conditions in all cases: glycan notation: IUPAC condensed, linker removed
# [1] = target: Gal(b1-4)GlcNAc(b1-2)Man(a1-6)[Man(a1-3)]Man(b1-4)GlcNAc(b1-4)GlcNAc
# How it was run: (§1)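 Negative Z-scores can be read as non-binding. The Z-score is calculated within each array and then averaged across arrays of one protein sequence at different concentrations or buffers and across linkers. Arrays, 3228 in all, were curated from the Consortium for Functional Glycomics database and kept only where the protein sequence was available.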
# [2] = target: Gal(b1-4)GlcNAc(b1-2)[Gal(b1-4)GlcNAc(b1-4)]Man(a1-3)[Gal(b1-4)GlcNAc(b1-2)Man(a1-6)]Man(b1-4)GlcNAc(b1-4)GlcNAc
# How it was run: as §1
# [3] = target: Gal(b1-4)GlcNAc(b1-2)[Gal(b1-4)GlcNAc(b1-4)]Man(a1-3)[Gal(b1-4)GlcNAc(b1-2)[Gal(b1-4)GlcNAc(b1-6)]Man(a1-6)]Man(b1-4)GlcNAc(b1-4)GlcNAc
# How it was run: as §1
# [4] = target: Gal(b1-4)GlcNAc(b1-2)[Gal(b1-4)GlcNAc(b1-4)]Man(a1-3)[GlcNAc(b1-4)][Gal(b1-4)GlcNAc(b1-2)Man(a1-6)]Man(b1-4)GlcNAc(b1-4)GlcNAc
# How it was run: as §1
# [5] = target: Gal(b1-4)GlcNAc(b1-2)[Gal(b1-4)GlcNAc(b1-4)]Man(a1-3)[GlcNAc(b1-4)][Gal(b1-4)GlcNAc(b1-2)[Gal(b1-4)GlcNAc(b1-6)]Man(a1-6)]Man(b1-4)GlcNAc(b1-4)GlcNAc
# How it was run: as §1
# [6] = target: Gal(b1-4)GlcNAc(b1-2)[Gal(b1-4)GlcNAc(b1-6)]Man(a1-6)[Gal(b1-4)GlcNAc(b1-2)Man(a1-3)]Man(b1-4)GlcNAc(b1-4)GlcNAc
# How it was run: as §1
# [7] = target: Gal(b1-4)GlcNAc(b1-2)[Gal(b1-4)GlcNAc(b1-6)]Man(a1-6)[Gal(b1-4)GlcNAc(b1-2)Man(a1-3)]Man(b1-4)GlcNAc(b1-4)[Fuc(a1-6)]GlcNAc
# How it was run: as §1
# [8] = target: Gal(b1-4)GlcNAc(b1-2)[Gal(b1-4)GlcNAc(b1-6)]Man(a1-6)[GlcNAc(b1-4)][Gal(b1-4)GlcNAc(b1-2)Man(a1-3)]Man(b1-4)GlcNAc(b1-4)GlcNAc
# How it was run: as §1
# [9] = target: Gal(b1-4)GlcNAc(b1-2)[Gal(b1-4)GlcNAc(b1-6)]Man(a1-6)[GlcNAc(b1-4)][Gal(b1-4)GlcNAc(b1-2)[Gal(b1-4)GlcNAc(b1-4)]Man(a1-3)]Man(b1-4)GlcNAc(b1-4)[Fuc(a1-6)]GlcNAc
# How it was run: as §1
# [10] = target: Gal(b1-4)GlcNAc(b1-3)Gal(b1-3)GalNAc
# How it was run: as §1
# [11] = target: Gal(b1-4)GlcNAc(b1-3)Gal(b1-3)GlcNAc
# How it was run: as §1
# [12] = target: Gal(b1-4)GlcNAc(b1-3)Gal(b1-4)Glc
# How it was run: as §1
# [13] = target: Gal(b1-4)GlcNAc(b1-3)Gal(b1-4)GlcNAc
# How it was run: as §1
# [14] = target: Gal(b1-4)GlcNAc(b1-3)Gal(b1-4)GlcNAc(b1-2)Man(a1-3)[Gal(b1-4)GlcNAc(b1-3)Gal(b1-4)GlcNAc(b1-2)Man(a1-6)]Man(b1-4)GlcNAc(b1-4)GlcNAc
# How it was run: as §1
# [15] = target: Gal(b1-4)GlcNAc(b1-3)Gal(b1-4)GlcNAc(b1-2)Man(a1-3)[Gal(b1-4)GlcNAc(b1-3)Gal(b1-4)GlcNAc(b1-2)Man(a1-6)]Man(b1-4)GlcNAc(b1-4)[Fuc(a1-6)]GlcNAc
# How it was run: as §1
# [16] = target: Gal(b1-4)GlcNAc(b1-3)Gal(b1-4)GlcNAc(b1-2)[Gal(b1-4)GlcNAc(b1-3)Gal(b1-4)GlcNAc(b1-6)]Man(a1-6)[Gal(b1-4)GlcNAc(b1-3)Gal(b1-4)GlcNAc(b1-2)Man(a1-3)]Man(b1-4)GlcNAc(b1-4)GlcNAc
# How it was run: as §1
# [17] = target: Gal(b1-4)GlcNAc(b1-3)Gal(b1-4)GlcNAc(b1-2)[Gal(b1-4)GlcNAc(b1-3)Gal(b1-4)GlcNAc(b1-6)]Man(a1-6)[Gal(b1-4)GlcNAc(b1-3)Gal(b1-4)GlcNAc(b1-2)Man(a1-3)]Man(b1-4)GlcNAc(b1-4)[Fuc(a1-6)]GlcNAc
# How it was run: as §1
# [18] = target: Gal(b1-4)GlcNAc(b1-3)Gal(b1-4)GlcNAc(b1-3)Gal(b1-4)GlcNAc
# How it was run: as §1
binder,measurement,setting,value
B1,glycan array binding signal (z-score),[1],-0.04
same,glycan array binding signal (z-score),[2],-0.013
same,glycan array binding signal (z-score),[3],-0.235
same,glycan array binding signal (z-score),[4],-0.169
same,glycan array binding signal (z-score),[5],-0.125
same,glycan array binding signal (z-score),[6],-0.251
same,glycan array binding signal (z-score),[7],-0.271
same,glycan array binding signal (z-score),[8],2.06
same,glycan array binding signal (z-score),[9],-0.041
same,glycan array binding signal (z-score),[10],-0.208
same,glycan array binding signal (z-score),[11],0.037
same,glycan array binding signal (z-score),[12],0.214
same,glycan array binding signal (z-score),[13],0.137
same,glycan array binding signal (z-score),[14],-0.038
same,glycan array binding signal (z-score),[15],0.167
same,glycan array binding signal (z-score),[16],1.2
same,glycan array binding signal (z-score),[17],0.198
same,glycan array binding signal (z-score),[18],0.544
